Sequences and labels used below:
B1: LINE1-mini (parent)
chain: GGCAGAGCUCAACACAGCGUGGCAAAGUGGCUGUGGCUAGACUGCC

The source gives no read counts; variants with many changes may rest on few reads.

This data set covers variants of B1. The data set can be described thus: self-cleavage, relative activity (ratio to wild type); higher = more cleavage; in vitro, sequencing; the parent is a self-cleaving ribozyme.
As to C13U U20C U34G, the self-cleavage was found to be 0.02.
To A14C G36A G44C belongs 0.09; to A14G G17C G19A C46U, 0.24.
For A14U U20A G27U A39C G40U U43C the value was 0.04; for C15A A39G C45A, 0.04; for A14U C15U A16C A26G G40A, 0.24.
Take A14U U32G C46G: the self-cleavage was 0.08.
For A14G G40A C45G the value was 0.56; for A14G C31A U43A, 0.12; for C15A G17C A26U G33A G40C, 0.04.
For A14G G36U C42A U43A, the self-cleavage amounted to 0.01.
Turning to C13U U20G C37A U38A C42G U43C, the self-cleavage was 0.01.
For C15A A39C C46G the value was 0.03; for A14U U43C C45U, 0.04.
With A14U U20G C31A, the self-cleavage turned out to be 0.01.
With C13U G21U U43C, the self-cleavage was determined as 0.11.
Take A14C C15U C23A A39C C46G: the self-cleavage is 0.02.
On to C15A A16G G22A U28C G29C C46G, for which the self-cleavage is 0.02.
Consider A14C G21C C23G G27U A41U, for which the self-cleavage is 0.02.
As for C15A C18A C23U G27A A41G, the self-cleavage worked out at 0.03.
For the variant A14U U32G G40C, the self-cleavage is 0.02.
Turning to A14C C23G A25C U34A G35C, the self-cleavage was 0.07.
Turning to A14G U32C G36A A41C, the self-cleavage came out at 0.05.
For A14C A24U G30C C42A G44A the value was 0.1.
Consider A14U C18G A26U, for which the self-cleavage was 0.04.
To A14U C18A C37A belongs 0.07; to C15A G17U A24G G29C, 0.06.
Turning to C15A A25U G35U, the self-cleavage is 0.42.
As for A14G G29C A41U, the self-cleavage was determined as 0.18.
As to C15A A16C G22C A25U U32C, the self-cleavage amounted to 0.02.
To C15A G21C C23G U28C A39U belongs 0.03; to A14G G36U C37U A39C, 0.03; to C15A G17U G19U C37A, 0.02.
Turning to A14C G17U U20G U38C G44U C46A, the self-cleavage was found to be 0.
On to A14U G21A G22U, for which the self-cleavage worked out at 1.43.
For the variant A14U C31A G35A C42U, the self-cleavage came out at 0.02.
Consider A14G G19C A25G G29U C31A U34G G40U, for which the self-cleavage turned out to be 0.01.
To C15A A24C G30C belongs 0.05.
Take C15A G17A G40U: the self-cleavage is 0.02.
With C15A G21U C23U, the self-cleavage was 0.09.
To A14G A16G C42A C46U belongs 0.03; to A14G C31A G36C U38C C46A, 0.12; to A14U G17C G22A C42G, 0.01.
For A14C A16G A24U G27U the value was 0.18; for C15A G19C C23U A24U A25C C31A, 0.11; for A14U U20G A24G U28C U32G A41G, 0.01.
In the case of C13U G29C C37A, the self-cleavage came out at 0.05.
A14C A39G U43C: the self-cleavage is 0.01.
For C15A G17C C23U A39C, the self-cleavage stood at 0.01.
A14U G22U G29A: the self-cleavage was determined as 1.69.
A14U G30U A41U G44U: the self-cleavage was determined as 0.04.
Consider A14C A25G G44C, for which the self-cleavage was found to be 0.01.
In the case of C13U U20C U38A, the self-cleavage was 0.04.
C15A G27A C42A U43A: the self-cleavage came out at 0.04.
To A14C G17U C18U belongs 0.08; to A14C C15G A25U, 0.04; to C13U G29C A39C C46A, 0.02.
Take C13U U20G A26G G27U: the self-cleavage amounted to 0.02.
As for C13U G30U U32G, the self-cleavage is 0.07.
C15A C37U C42A: the self-cleavage was found to be 0.02.
Take A14C U20A A25G C46A: the self-cleavage came out at 0.
As to A14G C18G G36U, the self-cleavage was 0.05.
With A14G G27U C46A, the self-cleavage turned out to be 0.03.
As for A14G C15A G33A C45A, the self-cleavage was 0.06.
For the variant A14U A16C C46U, the self-cleavage is 0.04.
Consider C13U G29A A41C, for which the self-cleavage is 0.04.
For A14C C23G C46A, the self-cleavage amounted to 0.03.
To A14G C15U A25G U38G belongs 0.05; to C15A G22C C37A, 0.08; to C15A A26C G36A, 0.15.
For A14U U28A C37G G44U C45U the value was 0.02; for A14C A16G G29U G33A C42U, 0.02; for A14U G21U G27A U38A C42A, 0.06.
As for C15A G27A U34A, the self-cleavage was 0.49.
As for A14C U28C G33C A39U, the self-cleavage is 0.
In the case of A14U C23U A41C, the self-cleavage turned out to be 0.04.
With A14G U28G G36A, the self-cleavage was 1.29.
In the case of A14U C15A A26U C31U A39G A41C G44A, the self-cleavage turned out to be 0.02.
For C15A A24U A26U U32A the value was 0.01.
Consider A14C A24C U32A, for which the self-cleavage was determined as 0.02.
As for A14C C18U A41U, the self-cleavage was found to be 0.11.
With A14C G21C A25C G36U, the self-cleavage came to 0.07.
As to A14C A41G U43G, the self-cleavage was 0.19.
For A14C C31U G33U the value was 0.01; for A14U C18A G21U G29A G40U, 0.03.
For the variant A14C U32G A41G, the self-cleavage is 0.04.
For the variant C15A G17U U32G G44U, the self-cleavage stood at 0.01.
For A14U C15G G22U C31A the value was 0.06; for A14U A24C G29U U32C U38C, 0.3.
As for A14G A16U G22C A26U C37U, the self-cleavage worked out at 0.13.
A14G C31A C46A: the self-cleavage is 0.06.
To C13U G40U C42U belongs 0.23; to A14C U32A U34G, 0.03; to C15A G21U G40C, 0.01.
Regarding C13U G21U G36C, the self-cleavage was determined as 0.47.
For the variant C15A C18A C31A C42A, the self-cleavage was 0.02.
Consider A14U A16G U20G G22A A39G, for which the self-cleavage was 0.
Regarding A14U C18A G44C, the self-cleavage is 0.04.
Take A14C C31A U32A: the self-cleavage worked out at 0.02.
In the case of A14U G22C G29C, the self-cleavage came out at 0.39.
Take C13U G30C G44A: the self-cleavage was found to be 0.04.
Regarding C15A G19U C45A, the self-cleavage is 0.05.
To C15A A25C U28C belongs 0.03; to A14G U34A A39U G44A, 0.06.
Regarding A14G A24U U34C, the self-cleavage came to 0.15.
As to C13U U32C G44C, the self-cleavage was 0.02.
For A14G C15U C42A, the self-cleavage worked out at 0.07.
To A14C U20C A25G G30C C31A C42U belongs 0.01; to A14C G19A G29C, 0.38; to A14U A16C G21U, 0.05.
On to A14U G29U A39G, for which the self-cleavage stood at 0.06.
To C15A A26C G33A belongs 0.04; to A14G G29U U38G, 0.04.
For A14C G17A C45U, the self-cleavage amounted to 0.
For the variant A14U G22A U34A C45A, the self-cleavage came out at 0.07.
For A14C G30C G36A, the self-cleavage was 0.26.
On to C15A G17U G33C C45A, for which the self-cleavage came out at 0.02.
For C13U G29A G40A A41U G44A the value was 0.13; for A14C C31U C46U, 0; for A14C G17U U38A, 0.04.
Turning to A14U C23U G33C U43C, the self-cleavage is 0.
As to C15A G17U G29U, the self-cleavage came to 0.09.
Turning to A14G A24G U32G U38A A41G, the self-cleavage stood at 0.11.
For C13U G21U G44U, the self-cleavage is 0.55.
Turning to A14C C45A C46A, the self-cleavage stood at 0.04.
For A14C G29A A39U the value was 0.08; for A14U C18U G21A, 0.34.
Take A14C G22A U43A: the self-cleavage was 0.04.
Turning to C15A A16U G19A U20C G30A U38A G40A, the self-cleavage is 0.07.
For the variant A14C G21U G44U, the self-cleavage worked out at 0.02.
As to C15A A25G G30U U34G C37A, the self-cleavage came out at 0.22.
On to A14U C18U A25G G29C C31G, for which the self-cleavage worked out at 0.01.
To C15A A16C G27U belongs 0.05; to A14G G29C C31U A41G, 0; to C13U G27A G35A, 0.52.
For the variant C15A A25G G27A G40C U43C, the self-cleavage is 0.02.
To C15A C18U A24U belongs 0.06; to A14C A25C G35C, 0.04.
To A14C G22C C31G U43A belongs 0.03.
As to A14U A25U G40C U43A, the self-cleavage was found to be 0.05.
As to A14G C18A C42A, the self-cleavage stood at 0.02.
Turning to C13U G22U G29U A39C C45A, the self-cleavage was 0.06.
With A14U G27A U32C C37G C42U, the self-cleavage stood at 0.13.
In the case of A14U G19A C37G, the self-cleavage was 0.05.
Turning to A14U G17U G30C C46A, the self-cleavage worked out at 0.06.
For A14C U20A C31U, the self-cleavage came to 0.
For the variant A14U G29U U32G C46G, the self-cleavage was 0.01.
For A14U U28C C46A, the self-cleavage was determined as 0.05.
As for C15A A16C G35U, the self-cleavage was 0.01.
Take A14U C23A A24U: the self-cleavage stood at 0.17.
Regarding A14C A24C U28G G30U G44A, the self-cleavage is 0.03.
Regarding A14C G27U C45A, the self-cleavage was found to be 0.12.
As for C13U U34G C45G, the self-cleavage stood at 0.03.
Consider A14U C18G G21U U32C U34C C45G, for which the self-cleavage was determined as 0.01.
As to A14C A24C U38C, the self-cleavage is 0.06.
For A14C G30U U32G C37G A39C the value was 0.01; for A14G G17C G21U G22U, 0.08; for C13U G29U U34C, 0.08.
To A14U A25U G29C belongs 0.54; to A14C C18A U38A G40U, 0.09.
For A14G G17U G36U the value was 0.02; for A14G C31G C42G, 0.01.
On to A14U U32C C42A, for which the self-cleavage stood at 0.03.
A14U C31U U38G C42U: the self-cleavage was found to be 0.01.
For A14U G30U G40C the value was 0.1; for A14U C15A G40A, 0.05.
As for A14G C15A C23U C37U A39G, the self-cleavage is 0.11.

The values are drawn from the RNAGym collection of RNA variant scans (doi:10.7554/elife.90254).
